Measurements: ChEMBL document CHEMBL4888484, “Replenishing the malaria drug discovery pipeline: Screening and hit evaluation of the MMV Hit Generation Library 1 (HGL1) against asexual blood stage Plasmodium falciparum ,using a nano luciferase reporter read-out” (2022)
Screen size: about 150,000 compounds; about 540 (0.36%) showed an effect of 50% or more. The list shows a part of the results.

test system: Plasmodium falciparum; assay: Primary screen in NF54 nanoGlo assay, in single point, at 2uM, 72h; a lower Z score goes with more inhibition; assay type: functional, Erythrocyte; conditions: timepoint 72 hour

Compound	% Inhibition	Z score
Cc1cc(C)cc(CCC(=O)NCCS(C)(=O)=O)c1	-12%	2.34
Cn1c(=O)c(-c2nc(-c3ccc(F)c(Br)c3)no2)c(O)c2ccccc21	-2%	0.26
O=C(N[C@@H]1CN(Cc2cccc(Cl)c2)C[C@H]1CO)C1CCC1	-4%	0.61
Cc1noc(CN[C@@H](C)c2cccc(OC(C)C)c2)n1	-13%	1.67
O=C(Nc1ccccc1C(=O)N1CCN2C(=O)NC(=O)[C@@H]2C1)c1cccs1	-3%	0.33
O=C(CC1CCCC1)NC[C@@H]1C[C@H](F)CN1C(=O)CCn1ccccc1=O	5%	-1.02
C[C@H](NCC(=O)N1CCOCC1)c1nc(Cc2ccccc2)no1	-1%	0.07
CCN(CCc1ccncc1)c1ccc(N)cn1	-14%	1.85
O=C(NCCc1ccccc1)c1cnn2ncccc12	-8%	1.12
Cc1cnc(NC(=O)Cc2csc(C)n2)c(Br)c1	-9%	0.9
Cc1nn(CC(=O)N2CCNC(=O)[C@@H]2c2cccc(F)c2)c(C)c1C	-14%	1.33
CCOc1cncc(N2CC[C@H](OC)C(C)(C)C2)n1	-15%	1.9
CN1CCN(S(=O)(=O)NCCCC[C@H]2CCCO2)CC1	-1%	0.23
C[C@@H](Cc1cccnc1)N1C(=O)N(C)C(C)(C)C1=O	-11%	2.03
CC(C)Oc1cccc(NC(=O)C2CCN(S(=O)(=O)Cc3cccc(Cl)c3)CC2)c1	-10%	1.57
Cc1cc(C)c2nccc(N3CCN(C4CCN(C)CC4)[C@@H](CCO)C3)c2c1	9%	-1.26
CCN=C(NCC)NC[C@@H](c1cccs1)N(C)C	-2%	0.19
COc1cc(F)ccc1S(=O)(=O)N[C@@H]1Cc2ccccc2[C@H]1N	-8%	1.51
CCc1nnc(CNc2ccc(F)c(CC)c2)o1	4%	-0.42
Cc1n[nH]cc1CN(C)C1CCN(c2ccc3c(c2)OCO3)CC1	-29%	2.97
CNc1nc(NCC2C(C)(C)C2(C)C)ncc1F	-20%	1.81
Cc1nnc(C2(c3ccc(Cl)cc3)CCOCC2)o1	3%	-0.48

Compound	% Inhibition	Z score
C(=Cc1ccco1)CNC[C@@H]1COc2ccccc2C1	-8%	1.32
COc1ccc(-c2ncnc3[nH]ccc23)c(OC)c1OC	-3%	0.6
CN(C)c1nc(N)nc(CN2CCCC2CC(O)c2ccccc2)n1 (configuration not stated)	-5%	0.96
Cc1cc(N[C@@H]2COCC[C@@H]2OCCO)nc(C)c1C#N	-3%	0.54
N#Cc1ccc(Nc2ccc3c(c2)CC(=O)N3)nc1	-11%	1.18
CCCN(Cc1cc(NC(=O)C2CCC2)ccc1N(C)C)C(=O)C(C)(C)C	-15%	2.12
CC[C@H]1CN(C(=O)CN2CCCCc3ccc(OC)cc32)CCO1	3%	-0.25
CC(C)Oc1ccc(CN2C(=O)CC[C@@]2(C)C(=O)NCc2ccccc2)cc1	-8%	0.88
CC(C)CC(=O)c1c[nH]c(C(=O)C(Cl)(Cl)Cl)c1	-3%	0.38
Cc1cc(N2CCC(C(=O)NCc3ccccn3)CC2)n2nc(C)cc2n1	-5%	0.9
COCCOc1ncccc1-c1noc([C@@H]2CCCN2c2ncccn2)n1	-6%	0.94
CCCCc1nc(CN2CCC[C@H](N(C)CCc3ccccn3)C2)c[nH]1	-12%	1.59
CCN1CN(CC(=O)N[C@@H](Cc2ccccc2)c2ccccc2)CC1=O	-5%	0.88
CS(=O)(=O)N(Cc1nnc2n1CCOCC2)CC1CCC(F)(F)CC1	-14%	2.14
CC(C)(C)OC(=O)N1CCN2C(=O)c3ccc(-c4ccccc4)cc3OCC[C@@H]3CC[C@H](O)[C@@H](CNC(=O)[C@@H]2C1)O3	15%	-1.95
CN(C)c1cncc(NC(=O)C2CC3(CC3)C2)c1	-6%	1.18
COc1cc(=O)n(-c2ccccc2)cc1C(=O)N1CCC(n2ccnn2)CC1	-16%	2.71
CCN1C(=O)Cc2cc(NC(=O)Cc3ccc(F)cc3)ccc21	-4%	0.5
COc1ccc(CC(=O)N2CC[C@H](Oc3ncccn3)C2)cc1C	-6%	1.14
Cn1cccc(C(=O)N2CCC(n3ccnn3)CC2)c1=O	-16%	2.06
Cc1nc(NC2CCCCC2)c2c(C)noc2n1	-8%	0.95
CCC(=O)N(Cc1ccccc1)Cc1c(-c2ccccc2)noc1N1CCCC1	-12%	1.55

Compound	% Inhibition	Z score
Cc1noc(C)c1CN(C)C(=O)CCCc1ccccc1	-6%	0.82
Cc1ccc(NC(=O)CN2CCN(C(=O)Nc3ccc(Br)cc3)CC2=O)c(C)c1	-1%	0.1
CCc1cnc(C)nc1N[C@@H](C)c1cccc(OC)c1	-20%	2.67
Fc1ccc(OCCNC2CCN(CC(F)F)CC2)c(F)c1	-18%	1.93
O=C1ON(c2ccccc2)[C@@H](c2ccc3c(c2)OCO3)N1c1ccc(Cl)cc1	-5%	0.74
Cc1nccn1C1CN(C(=O)C2CCCCC2)C1	-14%	1.7
Brc1ccc(CN2CCOC(C3CCCO3)C2)o1 (configuration not stated)	-15%	2.02
Cc1ccc(N2C[C@@H](C(=O)N3CCC4(CC3)NC(=O)NC4=O)CC2=O)cc1	7%	-0.94
Cc1cccc(NC(=O)N2CCN(c3nc(-c4cccc(F)c4)nc(C)c3Cc3ccccc3)CC2)c1	10%	-1.24
C[C@@H](CC(=O)Nc1cnccn1)c1ccc(F)cc1F	-19%	1.92
CCN1C(C(=O)N2CCOCC2)=C(OCc2ccccc2)c2ccccc2S1(=O)=O	6%	-0.7
Cn1cc([C@@H]2CCCN2CC2=Nc3ccccc3S(=O)(=O)N2)cn1	-18%	2.99
C[C@H]1CCN(Cc2coc3ccccc23)CCS1(=O)=O	7%	-0.7
CC1=NN(Cc2ccccc2)C(=O)[C@H]1C(=O)Nc1ccccn1	-19%	2.42
Cc1coc(-c2ccc(C)c(NC(=O)NCc3cc(C)on3)c2)n1	-11%	1.15
CCc1ccc(C(=O)Nc2nc(C)nn2C)o1	3%	-0.59
CCNC(=O)Nc1nnc(-c2ccco2)o1	7%	-0.75
CCn1cc(S(=O)(=O)N2CC3CN(c4ccccc4)CC3C2)cn1 (configuration not stated)	-2%	0.36
COc1cnc(NC(=O)c2occc2CN2c3ccccc3C[C@@H]2C)cn1	-13%	1.5
COc1ccccc1C1(CNc2ncnc3nc[nH]c23)CCOCC1	-2%	0.39
CCCS(=O)(=O)N1CCC(F)(F)[C@@H](COCc2cccnc2)C1	-3%	0.58
CC1=NS(=O)(=O)N(C)C=C1C(=O)OCc1c(F)cccc1Cl	2%	-0.37

Compound	% Inhibition	Z score
CC(C)N1CCC[C@H](C(=O)NCCc2noc(C3CCCC3)n2)C1	-2%	0.36
CCN(CC)c1cc(CCC(=O)NC2CCCC2)ccn1	0%	0.08
CCn1nc(CO)c2c1CCN(C(=O)c1ccc3[nH]nnc3c1)C2	-15%	1.43
Cc1nc[nH]c1CN(Cc1nccn1C)C1CC1	-11%	1.4
CC1CC(C)CN(S(=O)(=O)Cl)C1 (configuration not stated)	-13%	1.49
Cc1nc(-c2ccccc2)sc1[C@H](C)NC(=O)C1(C)CCOCC1	-1%	0.06
C[C@H]1Cc2cc(Br)cc3c(=O)c(C(=O)NC4CCCCCCC4)cn1c23	-3%	0.42
COc1cccc(C(=O)N[C@H]2CCC23CCOCC3)c1	-6%	0.89
O=C(Nc1ccc2c(c1)OCCO2)c1ccc(-c2ccnc(N3CCCC3)n2)cc1	2%	-0.23
COCCn1nc2n(c1=O)CCC1(CC2)CCN(C(=O)c2ccc(C)s2)CC1	9%	-1.05
CCOc1ccc(S(=O)(=O)N2CC[C@@]3(CCCOC3)C2)c(C)c1	-1%	0.12
Nc1nnc(-c2cn(-c3ccccc3)nc2-c2ccc(F)cc2)s1	4%	-0.53
O=C(Cc1coc(-c2ccc(F)cc2)n1)NS(=O)(=O)C[C@H]1CCCCO1	-11%	1.68
Cc1[nH]ccc1C(=O)N(C)Cc1csc(C(C)(C)O)n1	-11%	1.48
Cc1ccc(CN(C)C(=O)c2nccnc2-c2nc3ccccc3s2)c(C)c1	-7%	1.18
COc1ccc(C(=O)NCCC(=O)NCc2ccco2)cc1OC	6%	-0.67
COc1ccccc1N1CCN(CC[C@@H]2CC[C@H](O)[C@@H](C(=O)NC3CC3)O2)CC1	0%	-0.05
CO[C@H]1CCOC[C@@H]1NC(=O)c1cc(Cl)ccc1O	11%	-1.91
Cc1ccc(CNC(=O)CN2N=C(c3ccccc3)c3cc(Cl)ccc3S2(=O)=O)cc1	-14%	1.28
Cc1noc(C(C)N2CCC(C(=O)OC(C)(C)C)C2)n1 (configuration not stated)	-10%	0.89
